The source of these data is paper PMC5316989.

Sequences of proteins named here, by UniProt entry; tags and fusion partners are left off.
UniProt Q92783: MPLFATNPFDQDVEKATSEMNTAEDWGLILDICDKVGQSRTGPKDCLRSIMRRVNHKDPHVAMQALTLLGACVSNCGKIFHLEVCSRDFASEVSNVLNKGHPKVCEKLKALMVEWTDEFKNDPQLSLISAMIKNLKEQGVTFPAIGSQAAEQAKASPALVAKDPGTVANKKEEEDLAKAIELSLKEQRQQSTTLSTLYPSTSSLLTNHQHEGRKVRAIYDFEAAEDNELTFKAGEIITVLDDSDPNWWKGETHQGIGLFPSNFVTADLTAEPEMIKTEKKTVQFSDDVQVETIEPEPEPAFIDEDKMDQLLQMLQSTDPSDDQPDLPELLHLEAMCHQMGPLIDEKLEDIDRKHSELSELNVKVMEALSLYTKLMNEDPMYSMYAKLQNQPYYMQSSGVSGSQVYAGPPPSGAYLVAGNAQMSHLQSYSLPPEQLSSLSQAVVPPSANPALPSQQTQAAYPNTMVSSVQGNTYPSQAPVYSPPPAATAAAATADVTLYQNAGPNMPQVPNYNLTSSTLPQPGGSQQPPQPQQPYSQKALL
UniProt O00399: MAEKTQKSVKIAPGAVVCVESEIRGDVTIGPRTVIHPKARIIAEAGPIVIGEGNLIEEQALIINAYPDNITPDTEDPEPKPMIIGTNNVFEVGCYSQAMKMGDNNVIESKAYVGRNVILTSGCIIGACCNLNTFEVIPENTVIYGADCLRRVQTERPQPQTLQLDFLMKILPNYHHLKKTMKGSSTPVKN
UniProt Q9BTE1: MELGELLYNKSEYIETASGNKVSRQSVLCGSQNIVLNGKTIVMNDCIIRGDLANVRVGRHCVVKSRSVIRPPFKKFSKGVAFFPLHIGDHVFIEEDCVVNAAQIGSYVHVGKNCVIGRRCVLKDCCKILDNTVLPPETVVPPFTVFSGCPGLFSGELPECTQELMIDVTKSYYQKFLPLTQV
UniProt O14964: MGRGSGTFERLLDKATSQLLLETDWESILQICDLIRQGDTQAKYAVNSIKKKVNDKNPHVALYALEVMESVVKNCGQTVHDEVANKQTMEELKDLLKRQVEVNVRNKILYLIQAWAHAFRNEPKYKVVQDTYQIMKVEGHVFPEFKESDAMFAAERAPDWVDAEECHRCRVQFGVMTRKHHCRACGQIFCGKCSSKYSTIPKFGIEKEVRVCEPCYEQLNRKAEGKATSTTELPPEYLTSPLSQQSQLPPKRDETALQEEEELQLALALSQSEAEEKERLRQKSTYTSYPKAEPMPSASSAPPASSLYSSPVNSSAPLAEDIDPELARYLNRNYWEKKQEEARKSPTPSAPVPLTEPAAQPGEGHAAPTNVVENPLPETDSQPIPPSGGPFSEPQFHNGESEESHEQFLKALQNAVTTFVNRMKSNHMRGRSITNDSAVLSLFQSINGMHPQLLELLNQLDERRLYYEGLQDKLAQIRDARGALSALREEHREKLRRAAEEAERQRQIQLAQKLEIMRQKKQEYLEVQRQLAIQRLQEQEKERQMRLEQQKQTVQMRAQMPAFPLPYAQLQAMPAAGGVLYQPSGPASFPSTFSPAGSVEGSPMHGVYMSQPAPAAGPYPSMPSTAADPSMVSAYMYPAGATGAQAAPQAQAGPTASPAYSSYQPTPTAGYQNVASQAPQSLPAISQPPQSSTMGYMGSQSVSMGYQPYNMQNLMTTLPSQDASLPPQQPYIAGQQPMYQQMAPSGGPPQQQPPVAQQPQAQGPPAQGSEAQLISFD
UniProt Q9UJW0: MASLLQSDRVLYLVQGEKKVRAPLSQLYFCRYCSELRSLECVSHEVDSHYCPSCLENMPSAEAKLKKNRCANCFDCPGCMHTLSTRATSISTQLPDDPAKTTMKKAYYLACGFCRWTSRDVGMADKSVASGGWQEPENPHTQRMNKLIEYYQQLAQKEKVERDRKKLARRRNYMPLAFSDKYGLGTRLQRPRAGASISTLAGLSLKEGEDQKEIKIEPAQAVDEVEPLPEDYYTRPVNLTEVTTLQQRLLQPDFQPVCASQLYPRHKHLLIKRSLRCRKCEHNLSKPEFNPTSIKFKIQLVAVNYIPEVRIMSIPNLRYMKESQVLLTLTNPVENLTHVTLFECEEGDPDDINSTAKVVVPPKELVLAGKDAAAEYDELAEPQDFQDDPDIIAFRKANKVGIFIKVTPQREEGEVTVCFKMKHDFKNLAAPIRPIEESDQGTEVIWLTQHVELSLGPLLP
UniProt P46934: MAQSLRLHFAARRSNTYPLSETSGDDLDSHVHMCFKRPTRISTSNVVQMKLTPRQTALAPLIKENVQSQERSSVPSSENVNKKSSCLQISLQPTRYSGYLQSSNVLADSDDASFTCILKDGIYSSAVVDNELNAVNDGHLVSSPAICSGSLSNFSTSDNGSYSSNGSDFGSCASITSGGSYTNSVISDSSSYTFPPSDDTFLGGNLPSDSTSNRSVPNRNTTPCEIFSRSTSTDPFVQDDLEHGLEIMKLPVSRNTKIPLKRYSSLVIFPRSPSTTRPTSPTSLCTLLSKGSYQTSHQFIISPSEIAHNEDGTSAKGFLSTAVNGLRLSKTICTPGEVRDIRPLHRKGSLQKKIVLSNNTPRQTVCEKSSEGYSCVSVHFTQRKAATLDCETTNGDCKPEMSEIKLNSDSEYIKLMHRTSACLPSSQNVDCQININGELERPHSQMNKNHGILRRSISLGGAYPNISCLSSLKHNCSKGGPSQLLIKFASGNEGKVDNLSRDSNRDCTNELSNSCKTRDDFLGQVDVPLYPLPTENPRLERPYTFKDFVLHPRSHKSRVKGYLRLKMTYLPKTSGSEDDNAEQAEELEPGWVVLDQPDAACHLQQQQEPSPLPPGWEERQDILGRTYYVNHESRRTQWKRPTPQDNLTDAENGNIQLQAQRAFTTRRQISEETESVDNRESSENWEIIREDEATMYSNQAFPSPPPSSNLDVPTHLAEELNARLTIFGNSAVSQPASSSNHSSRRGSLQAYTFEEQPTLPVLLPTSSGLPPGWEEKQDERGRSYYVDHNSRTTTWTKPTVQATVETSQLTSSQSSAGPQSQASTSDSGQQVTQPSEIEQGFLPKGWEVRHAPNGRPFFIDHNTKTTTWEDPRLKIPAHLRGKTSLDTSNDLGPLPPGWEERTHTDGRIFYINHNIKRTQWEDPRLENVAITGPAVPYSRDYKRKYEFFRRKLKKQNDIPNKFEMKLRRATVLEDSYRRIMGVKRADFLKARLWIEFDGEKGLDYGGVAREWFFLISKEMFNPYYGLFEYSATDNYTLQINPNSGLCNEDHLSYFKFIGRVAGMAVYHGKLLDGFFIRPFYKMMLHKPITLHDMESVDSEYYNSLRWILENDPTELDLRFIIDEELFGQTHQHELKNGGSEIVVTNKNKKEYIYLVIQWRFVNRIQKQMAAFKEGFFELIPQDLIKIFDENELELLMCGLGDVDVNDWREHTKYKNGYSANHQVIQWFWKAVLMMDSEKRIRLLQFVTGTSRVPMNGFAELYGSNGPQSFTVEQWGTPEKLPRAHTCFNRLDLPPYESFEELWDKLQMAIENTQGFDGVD

The target of one assay is T1, TMEPAI-WT-Flag (UniProt Q969W9).
T1 sequence: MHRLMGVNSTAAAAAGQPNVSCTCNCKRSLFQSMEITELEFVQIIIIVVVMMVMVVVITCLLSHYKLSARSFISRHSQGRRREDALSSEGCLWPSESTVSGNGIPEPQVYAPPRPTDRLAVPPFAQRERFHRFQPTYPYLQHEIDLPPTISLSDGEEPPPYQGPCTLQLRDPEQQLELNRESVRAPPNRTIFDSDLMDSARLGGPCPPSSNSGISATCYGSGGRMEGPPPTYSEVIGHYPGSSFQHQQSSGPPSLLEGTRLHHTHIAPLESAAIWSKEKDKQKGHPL
Description: co-IP; HeLa cells co-transfected with TMEPAI-WT-Flag and HA-Hrs or HA-STAM; extracts immunoprecipitated with antibody to Flag, blot with antibodies to HA and Flag.

The target in assay [1] is T2, TMEPAI cytoplasmic domain (aa63-287) fused to the GAL4 DNA-binding domain (UniProt Q969W9).
T2 sequence: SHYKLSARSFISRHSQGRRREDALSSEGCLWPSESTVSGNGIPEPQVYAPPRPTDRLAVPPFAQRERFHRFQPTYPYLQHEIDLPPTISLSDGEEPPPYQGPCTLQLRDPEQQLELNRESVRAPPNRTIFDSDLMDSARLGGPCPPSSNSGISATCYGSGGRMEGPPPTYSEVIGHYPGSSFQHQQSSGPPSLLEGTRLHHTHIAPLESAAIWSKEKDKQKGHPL
Briefly: two-hybrid; initial yeast two-hybrid screening with TMEPAI; bait and library not described.

Assay [2] addresses T2, TMEPAI cytoplasmic domain (aa63-287) fused to the GAL4 DNA-binding domain. Description: two-hybrid; TMEPAI versions as GAL4 DNA-binding domain fusions, partners as GAL4 activation domain fusions; yeast patched on DDO, QDO and QDO/X/A plates, growth on QDO and QDO/X/A means interaction.
For assay [3], the target named is T3, TMEPAI cytoplasmic domain lacking aa132–155 fused to the GAL4 DNA-binding domain (UniProt Q969W9).
T3 sequence: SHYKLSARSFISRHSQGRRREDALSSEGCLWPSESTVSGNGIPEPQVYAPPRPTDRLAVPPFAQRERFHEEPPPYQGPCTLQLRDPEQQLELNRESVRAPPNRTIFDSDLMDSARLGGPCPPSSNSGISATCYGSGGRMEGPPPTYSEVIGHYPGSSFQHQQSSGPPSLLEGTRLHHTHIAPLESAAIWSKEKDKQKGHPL
Described as above.

The target of assay [4] is T4, GST-tagged cytoplasmic domain of TMEPAI with deletion of amino acids 132–155 (GST-TMEPAI (Δ132–155)) (UniProt Q969W9).
T4 sequence: T3 sequence
Briefly: pull-down; GST fusion proteins on Glutathione Sepharose beads incubated with His-HA-tagged recombinant DCTN5 or DCTN6; blot with antibody to HA; both purified.

Assay [5] addresses T2, TMEPAI cytoplasmic domain (aa63-287) fused to the GAL4 DNA-binding domain. Briefly: two-hybrid; data not shown; told in the sentence on the yeast two-hybrid deletion screen.
Assay [6] addresses T3, TMEPAI cytoplasmic domain lacking aa132–155 fused to the GAL4 DNA-binding domain. The description is as above.

Results are given in words; binding and its absence hold for the method and conditions named. For part of these data: Binding seen in cells or lysates may run through a third protein. Some entries that bind do so weakly or less than the wild type. Tags and fused reporters may be left off the sequences shown.

Consider HA-STAM (from UniProt Q92783 1-540), for which the binding result in the assay with TMEPAI-WT-Flag is listed as “binds”.

Regarding “Human dynactin 6 (DCTN6) fused to the GAL4 activation domain (from UniProt O00399 1-190)”, the figures for the binding entry in assay [1], in assay [2] and in assay [3] were “binds”, “binds” and “no binding”, respectively. Regarding “Human dynactin 5 (DCTN5) fused to the GAL4 activation domain (from UniProt Q9BTE1 1-182)”, the binding result is given as “binds” in assay [2] and “no binding” in assay [3]. For HA-Hrs (from UniProt O14964 1-777), the binding entry in the assay with TMEPAI-WT-Flag is “binds”.

Turning to “His-HA-tagged recombinant DCTN5 (from UniProt Q9BTE1 1-182)”, the binding result in assay [4] is listed as “no binding”. In the case of “Human Hrs fused to the GAL4 activation domain (from UniProt O14964 1-777)”, the binding entry in assay [2] is on record as “binds”. Consider “Human dynactin 4 (DCTN4) fused to the GAL4 activation domain (from UniProt Q9UJW0 1-460)”, for which the binding result in assay [2] is recorded as “no binding”. Still for that read-out and setting: as for “Human STAM fused to the GAL4 activation domain (from UniProt Q92783 1-540)”, the entry is “binds”.

Turning to “His-HA-tagged recombinant DCTN6 (from UniProt O00399 1-190)”, the binding result in assay [4] is listed as “no binding”. As for “Human Nedd4 fused to the GAL4 activation domain (from UniProt P46934 1-1319) (enzyme)”, the binding entry in assay [5], in assay [6] and in assay [2] was “binds” each time.
